# From the supplement of paper PMC3334620
# Whole data set: some 33,000 sequences, median “E-score (-0.5 to 0.5)” near -0.041, cut for the highest 2% near 0.37. Some of the results follow.
# Target: T1, Ecm22 (UniProt Q05958)
# T1 sequence: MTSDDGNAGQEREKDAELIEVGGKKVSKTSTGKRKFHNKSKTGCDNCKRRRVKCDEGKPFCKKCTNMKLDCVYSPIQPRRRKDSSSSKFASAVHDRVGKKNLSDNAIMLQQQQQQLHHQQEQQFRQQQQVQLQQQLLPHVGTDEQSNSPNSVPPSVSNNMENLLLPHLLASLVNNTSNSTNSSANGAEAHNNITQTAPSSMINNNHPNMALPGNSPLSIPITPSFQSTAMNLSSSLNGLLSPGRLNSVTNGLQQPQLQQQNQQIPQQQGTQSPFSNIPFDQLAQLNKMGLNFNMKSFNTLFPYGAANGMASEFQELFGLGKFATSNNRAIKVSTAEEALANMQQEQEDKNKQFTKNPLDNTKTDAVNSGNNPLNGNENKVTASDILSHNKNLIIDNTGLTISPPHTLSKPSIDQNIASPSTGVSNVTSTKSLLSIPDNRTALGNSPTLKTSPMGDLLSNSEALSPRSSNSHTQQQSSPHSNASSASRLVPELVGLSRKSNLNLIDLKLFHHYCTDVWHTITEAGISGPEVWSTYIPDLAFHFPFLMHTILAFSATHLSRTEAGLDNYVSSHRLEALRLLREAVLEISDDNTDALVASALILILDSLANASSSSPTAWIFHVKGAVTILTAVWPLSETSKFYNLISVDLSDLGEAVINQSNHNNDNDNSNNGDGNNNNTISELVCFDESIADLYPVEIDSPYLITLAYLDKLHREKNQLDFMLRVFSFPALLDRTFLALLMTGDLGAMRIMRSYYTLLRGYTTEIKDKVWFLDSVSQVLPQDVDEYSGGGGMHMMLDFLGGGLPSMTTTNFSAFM
# Experiment: PBM E-score (8-mer binding enrichment) (E-score (-0.5 to 0.5)); higher = stronger / more preferred TF binding; most listed sequences are background and not binding sites
# Conditions: protein concentration: 200 nM; construct: GST-full length
# Method in brief: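 Universal all-10-mer Agilent arrays, fresh or stripped once, were converted to double-stranded form by primer extension. GST-tagged yeast transcription factors from PURExpress in vitro transcription/translation, full-length or DNA-binding domain only, were applied at about 100-200 nM and detected with fluorescent anti-GST. After masliner normalisation, the Universal PBM Analysis Suite scored each ungapped eight-base word together with its reverse complement by E-score.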
row,Sequence,PBM E-score
1,ATCTACAC,0.0981
2,CGGCCTAC,-0.0412
3,ACTTTGTA,-0.115
4,CAATTCCA,-0.195
5,CTCTCATA,0.00899
6,GTTCGGTA,0.211
7,TGGCCGAA,-0.102
8,AACGGATG,0.241
9,CGTCTACA,-0.0865
10,GTTACATA,-0.0158
11,ACTTTGTG,0.118
12,CGCCACGA,0.0548
13,ACCAAATA,0.00701
14,ACGCGGGA,0.062
15,GCCTGCAC,-0.261
16,AGTCGCTC,0.177
17,CAGCATTC,-0.13
18,ATCTGAAC,-0.0158
19,ACTTCTGG,-0.309
20,CGATGCTA,0.0845
21,CATGACAC,-0.0855
22,CCAACATA,0.0406
23,CAAGTCTG,-0.194
24,CAGGGTGA,-0.192
25,CGTGCGCA,-0.0738

row,Sequence,PBM E-score
1,CCCTAAGC,-0.268
2,ATCGTCCC,-0.0583
3,GACCGAGA,0.206
4,AACCTCGC,0.0711
5,CCCTCCAG,-0.206
6,AAGCGTCG,0.155
7,GTTGCCGA,0.227
8,TAACTTGA,-0.0895
9,CGTCTTCC,-0.227
10,GCCATCAA,-0.107
11,CCTACGCA,-0.0721
12,AGCCTACT,-0.228
13,CTCCATTA,-0.276
14,AGGCAGCA,-0.2
15,CGTGCCAG,-0.206
16,AAGGTGAT,-0.117
17,CCGACGAC,0.167
18,AATATAAT,-0.00206
19,CCTTAGAC,-0.122
20,ACCACAAA,0.0136
21,AAGGACGA,-0.00354
22,CAATCTCG,0.137
23,GACGTATC,0.0755
24,CGACGCCG,0.167
25,AAAAGAGG,0.0679

row,Sequence,PBM E-score
1,GAATTCGC,0.141
2,ATGCTCCA,-0.286
3,GCTTTGAC,-0.00291
4,AGGTATAC,0.26
5,ACCGGGCC,-0.107
6,ACCGACAC,0.236
7,TAGTAGGA,-0.193
8,ACTAACAA,-0.00572
9,TCCAACAA,-0.0854
10,CCCTACCC,-0.132
11,GACGTGCA,0.0366
12,AGATGACT,-0.143
13,AGGCCTCG,0.189
14,AATATTCG,0.228
15,GCAAACGC,0.0881
16,CTACGGGC,-0.0464
17,TCAAGTGA,-0.116
18,TCTCAGAA,-0.265
19,TGGGAAAA,-0.151
20,CAATGCGC,-0.019
21,AATATTGA,0.122
22,AAGCATTA,-0.0316
23,AGAACCTC,-0.146
24,TAATTGTA,0.0941
25,CTGGGGAA,-0.174

row,Sequence,PBM E-score
1,ATCATCAC,-0.118
2,CCGTAGCG,0.275
3,ACTTCGCA,0.18
4,ACACCGTA,0.313
5,CCTCATCC,-0.272
6,CAGGTAGC,-0.239
7,AATCAATT,-0.112
8,ATACGTCC,0.111
9,AGCTAGCG,0.045
10,AGGCACTA,0.00445
11,AGGATACC,-0.101
12,AGTTTAGA,-0.186
13,AAACACGT,0.034
14,ACAGATCC,0.0962
15,ACAAGTCG,0.065
16,CCTATAAG,-0.0614
17,AGGTGGAA,-0.0633
18,ATTGGCTA,0.0991
19,GTAACGTA,0.228
20,CTTTATCC,0.0548
21,ACCGAAGA,0.0871
22,CAAGCAAC,0.00354
23,CTCGGCAA,0.106
24,AATTCTAG,0.119
25,GTGACCAA,-0.0804

row,Sequence,PBM E-score
1,CTCTGGCC,-0.119
2,ATGATACG,0.377
3,GACGGGAA,0.133
4,GAAGTCCC,-0.172
5,AGAGTTGA,0.0512
6,CATTTCTA,0.0498
7,AGATTTCG,0.301
8,ACCGGCCG,0.0212
9,TGTACCAA,0.036
10,GAACCCAC,0.118
11,CCGCACAG,0.0576
12,ATTCATAA,0.0712
13,CGGCAAGC,-0.0285
14,CCCTGGCG,-0.0685
15,AGGCAATG,-0.113
16,CTCGTGCC,0.18
17,CTGCTGGA,-0.3
18,CCATGACA,-0.256
19,ACCTATTA,-0.181
20,ATAAACTC,0.00565
21,CAGTATCG,0.049
22,ACAAGCCA,-0.0197
23,AGAGTACT,-0.0868
24,CGACATTC,0.19
25,CAACTTGG,0.114

row,Sequence,PBM E-score
1,AGGGTGAG,-0.218
2,CTATATCC,-0.0511
3,GACCTTAA,-0.117
4,AGGGTGAC,-0.133
5,ATATCCTC,-0.125
6,AACTATCT,0.126
7,AACTGAAT,-0.0633
8,GCCTCCCC,-0.134
9,CTCGTCGA,0.0444
10,GCAGACGC,-0.093
11,AAGGGGTC,-0.155
12,GAGGTACA,-0.0135
13,CTATTCGC,0.0806
14,GTAATCAA,0.0204
15,AGTCCTGC,-0.111
16,CTGAGCAC,-0.132
17,CCCCCTGC,-0.162
18,TAAGAATA,0.104
19,ATGCGTCG,0.137
20,AGAATAAA,-0.0136
21,ACAGAGTG,-0.0233
22,AGGGACAT,0.0208
23,GACGGCTA,-0.0544
24,GTGCCTAA,-0.253
25,AATGATAT,0.097

row,Sequence,PBM E-score
1,GCAATAGC,-0.107
2,CTTCTTCA,-0.341
3,GGTCGACC,0.0863
4,ATCAGTAA,0.135
5,CGCAATGA,0.0533
6,CATGCCCG,0.0521
7,GCAAAATA,0.096
8,AACGGCCC,0.198
9,CCGTGGTA,-0.0622
10,CCAGAAAA,-0.131
11,CTAATGAC,-0.167
12,CATCATAA,-0.0898
13,CCGATAGA,-0.134
14,CCTTTAGA,-0.149
15,CAACAACG,0.209
16,CAGTAAAA,0.163
17,ATCGTGAA,0.0307
18,ACGGTATC,0.159
19,GAATTAGC,-0.121
20,AACACACA,-0.0144
21,TGCGCAAA,-0.077
22,AAAGTAAT,0.0494
